Experimental data as given in the supplement of paper PMC11417369.
This is one part of the list.

Tested on: PfSIP2 AP2 domain 1 (GST-tagged)
Experiment: gcPBM binding intensity (ln(normalized median fluorescence intensity)); higher = stronger DNA binding
Procedure, shortened: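 For binding intensity, the highest Masliner-normalised natural-log median intensity across replicate spots of either probe orientation was taken. Protein bound to the array was stained with Alexa488 anti-GST antibody and scanned at 488 nm. The protein, GST-tagged P. falciparum DNA-binding domains from E. coli at about 25 μg on average, had been applied for 1 h to an Agilent 4 × 180k array of primer-extended double-stranded 36-bp intergenic genomic probes and negative controls.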

Row | Sequence | gcPBM binding intensity (ln)
1 | AGGACTAATATTTGAACACACATATAATATATACAT [CACACA_site3998] | 6.98
2 | ATAACGACCTAGACGTGTACATACAAAGGAATGAAA [XGTACX_site4870] | 6.98
3 | CATACACATAGACACACACACATATATACCTATATA [CACACA_site6644] | 7.34
4 | GAAATGTATATTTTTACATGCAAATAAAATATATAA [TGCATGCA_site439] | 6.83
5 | TTTTTCTTGAATCGAAGTACTTAGGAGGGGATATTT [XGTACX_site2862] | 6.96
6 | ACACAATATATATATTGTACATACACATATTTACTA [XGTACX_site1872] | 7.29
7 | GAATATAAACATATTACACACATCTATAGGTACATT [CACACA_site6983] | 6.94
8 | GTGATTTAATTGTGTTGTACATATTTATAAATAAAA [XGTACX_site8966] | 7.15
9 | AAAAAAAAAAGAAACACACACATTTGTATTTAATAT [CACACA_site5184] | 6.64
10 | TTATTATTATATGAATGTACTTAAAAATACATTTTG [XGTACX_site2959] | 6.87
11 | ATTCTATATACACGCACACACACTTATATATATATA [CACACA_site3322] | 8.97
12 | CCCTTTTCTAAATATTGTACGTATAAATTATATTAC [XGTACX_site7676] | 7.45
13 | GTACAGATAAATATTACACACATTTTCATTTTTAAC [CACACA_site5140] | 6.99
14 | TTGTTCTTTTTTTTTTTATTTTTTAATTTGAAAAGA [CACACA_negctrl_site209] | 7.03
15 | AAAAAGAAAAAACGAAGTACAATTATAAGATTATAT [XGTACX_site410] | 6.84
16 | TATGTGCCAAGACACACACACATATTTATATTTATA [CACACA_site6360] | 7.05
17 | TATGAAAAATATCTTTGTACTTAGAAATATATACAC [XGTACX_site5393] | 7.27
18 | ATTTGTTACACTAAATGTACATACATACATATATAT [XGTACX_site6175] | 7.13
19 | TTATAAATTATAGGTACACACAAAAAAAAAAAGAAA [CACACA_site1327] | 7.31
20 | ATAAACATATCAATATGTACATATTTTTGTTTGTAT [XGTACX_site7018] | 6.94
21 | AAACCACAAAATTTTTTATATATGACCAATACATAG [CACACA_negctrl_site277] | 6.97
22 | ATTTATCAATAAAATGCACACACTGTAATATTATTA [CACACA_site3976] | 7.3

Row | Sequence | gcPBM binding intensity (ln)
23 | TTATAATAGTTAAATGTACACACTAACTACATGGAA [CACACA_site9070] | 7.12
24 | TTCCATATAATTACATGTACACATTTTGAATAATAT [XGTACX_site3692] | 7.2
25 | ATATATATGTATGTATGTACATATTTGAATTTATTT [XGTACX_site8470] | 7.15
26 | AGCACAGACGGACACACACACATATATATATATATA [CACACA_site4341] | 9.69
27 | ACAGATATACATAAAAAAAAAATAATTTTACATATA [CACACA_negctrl_site929] | 6.95
28 | ATGTATGTATAATATACACACTCACAAGCATTCAAA [CACACA_site4306] | 6.83
29 | GTATATATTCATATGGAAAATAAAGGAGAAAACAAG [TGCATGCA_negctrl_site220] | 7.76
30 | TTTGTTTTTTCTTTTTGTACATATACAAGATACGTA [XGTACX_site2309] | 7.05
31 | GTGTTTTTTTTAGATTGTACATATATATATATATAT [XGTACX_site4562] | 9.25
32 | TTTTGTAATTCTCTTCATATAATTTATATATATATA [CACACA_negctrl_site1825] | 9.01
33 | ACCCAACATATGTGTACACAGAAAATAAATATAATA [CACACA_site5901] | 7.66
34 | ATGGTAGTGATTAAAAGTACACGTAATTGTAAAAAT [XGTACX_site387] | 7.07
35 | ATATATATACATACATACCTATGTATATGTGTAATT [GTGCAC_negctrl_site50] | 7.7
36 | TAAACAACTTATAAATGTACACATATTTTAATTACC [XGTACX_site5409] | 7.33
37 | AATAAAAACTAAACATGTACGCACATATATATATAT [XGTACX_site8096] | 9.51
38 | TAAGTGCATGAGATATGTACATATATAAAATATATA [XGTACX_site3294] | 8.89
39 | TAAAAAAAAAAAAATACACACACACCGATATATATA [CACACA_site8498] | 7.52
40 | TCATAGTCTTAATGACTACACACCTAACTATGCATG [CACACA_site1839] | 6.85
41 | TTTTTTTCTTTATTAGCACACATAATATTATATATG [CACACA_site8841] | 7
42 | TATATCATTATATAAACACACAATATGTTTTTTATA [CACACA_site3781] | 6.76
43 | ACCTAAAAGGTATAATATATAAATAAAAAAAAAAAT [CACACA_negctrl_site134] | 6.83
44 | AAAATGAACAGACACACACACATATTTATATTTATA [CACACA_site7182] | 6.96

Row | Sequence | gcPBM binding intensity (ln)
45 | TATTAATCTAATTCATAAAAAATGATCTATTTTGTT [CACACA_negctrl_site1035] | 6.75
46 | AACATTTGATAAGATACACACACAAGGAAAAAAATA [CACACA_site8004] | 7.09
47 | TAGAATAATCTATAAACACACAAACACAACAAAAGA [CACACA_site7861] | 7.4
48 | AGATATTTTATAATTACACACATGAGGTTATTTGAA [CACACA_site1999] | 6.98
49 | TTATAAAAATAATATCGTACAAATGACATAGATGAA [XGTACX_site2570] | 7.01
50 | CATATACATAAACACACACACACATAAATAAATATA [CACACA_site4864] | 7.2
51 | TATAGGTATATATAAGTGCAATATATATGTATATAC [GTGCAC_site9427] | 7.76
52 | GAAAAGCAGATAAATGTGCACATATATGTTTGTATA | 8.45
53 | TATTATTTTTTAAATTGTACAATAAATTATAAAAGG [XGTACX_site1162] | 7.29
54 | ACATAAAATTGTTAAAAAATTGTATAAATAATACAT [XGTACX_negctrl_site557] | 6.81
55 | CAGCTCTTAAAAATTACACACATATACTCATATATA [CACACA_site5757] | 6.72
56 | GGTCTTTTCAACACACGTACATAAAAATATTATACA [XGTACX_site5360] | 8.05
57 | TATATATTGATATGCACACCTATGTATTGATGTATA [CACACA_site1073] | 8.97
58 | AATAATAATAAATATACACACATCATACAATTAACA [CACACA_site3679] | 7.03
59 | TATTTTTTTCTTACTACACACATATAGATGCTTTCC [CACACA_site7825] | 6.98
60 | ACATAAATTTAATACACACACAAAGAAAAAAAAAAA [CACACA_site4088] | 7.02
61 | TAATATAATATATATACACACAAGAAATACAAAACG [CACACA_site1378] | 7.65
62 | ATATTATTATAATATACATATATATATATAATATAT [CACACA_negctrl_site480] | 7.33
63 | TATATATATAATTAAAGTACATATAACCACAAAAAT [XGTACX_site7289] | 7.78
64 | AACAGATATATATGTAGTACATGTTCTAGATATTTT [XGTACX_site1208] | 7.07
65 | AATAATTGTTAAAGGTGTACAATACGTATGTAAGAA [XGTACX_site1328] | 7.68
66 | AATATAAACATAGATAGATAAATAAATAAATAAACA [GTGCAC_negctrl_site567] | 7.01

Row | Sequence | gcPBM binding intensity (ln)
67 | TATCATTTTGTATATAGTACATATATAAAATCGTTA [XGTACX_site3875] | 6.94
68 | AAAAAAAATAAAAATAAAAATAAAAATAAAAATAAA [GTGCAC_negctrl_site437] | 6.72
69 | CAAGCACCCAGACACACACACACACCCACACCCACA [CACACA_site369] | 8.12
70 | ATAAAAATAACATATAAACACACATATATATATATA [CACACA_site9267] | 9.45
71 | AGTCATTAAATATAATGTACATGGAAAAACAGCTGA [XGTACX_site7944] | 7.03
72 | GGAATATTTATACATACACACATATATTTATTTATA [CACACA_site6883] | 7.19
73 | ATGTAGACATAATGGGGTACAAAAAAAAAAAAAAAA [XGTACX_site881] | 7.21
74 | ATATTACCCATATATGCACACATTGTAGTTATTTAT [CACACA_site2636] | 8.65
75 | TTTTGTAGCAAAAAATAGGAAAAAAAAAAATTAAAT [GTGCAC_negctrl_site8] | 6.81
76 | ATATAATTACCATATGGTACACACATATATATATGT [XGTACX_site7393] | 7.25
77 | TTAAGATACAAAAAAGTGCATATTTTTTAACAAAAA | 9.95
78 | AAAAAAAAAAAAAAAACACACATAAATAGCTCAAAT [CACACA_site3973] | 7.67
79 | CACATACCCATACAAACACACATTATATATATATAT [CACACA_site4965] | 9.25
80 | ATATCGTGTGCATTAACACACATTTATTTGAATAAA [CACACA_site7162] | 7.65
81 | GATATATAAATAGATACACACATACATACATACATA [CACACA_site6260] | 7.18
82 | TACGATTAAAAAAAATGTACAGATTTTTATAGAATA [XGTACX_site6561] | 6.9
83 | ACAAATAAAAATATTACACACACTATTCTAGTGATA [CACACA_site6812] | 6.91
84 | GACAAATTATTGTGTACACAATATTATTATATATAC [CACACA_site6020] | 7.49
85 | CTTATGTTTTTTAAGTGTACATATTATACGTATTAT [XGTACX_site1176] | 7.15
86 | TAAATATATATAATTACACACTTTTCTATAATATGA [CACACA_site711] | 6.87
87 | TTAAGATATATAAAGAGTACACATAAGAGTAATGCT [XGTACX_site58] | 6.88
88 | TATAATACATTATATTGTACTATATTATAATAAATT [XGTACX_site5934] | 7.04
